Read counts are not given, so values of variants with three or more changes are uncertain.
B1: CPEB3 Ribozyme (parent)
chain: UAACAGGGGGCCACAGCAGAAGCGUUCACGUCGCAGCCCCUGUCAGAUUCUGGUGAAUCUGCGAAUUCUGCUGUAUAUCUC

Variants of: B1
Assay: self-cleavage, relative activity (ratio to wild type); higher = more cleavage; in vitro, sequencing
In short: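 Relative activity was defined as the cleaved/total read fraction for a variant divided by the same fraction for the unmutated ribozyme. CPEB3 self-cleaving ribozyme libraries were made by rounds of error-prone PCR, barcoded, and transcribed in vitro with T7 RNA polymerase for 5 hours at 37°C, and cleavage ran through transcription plus a 15 min DNase I step before EDTA. Illumina sequencing of template-switched reverse transcripts gave the reads, and DNA sequencing mapped the barcodes. Averages come from three batches, using variants with at least 5 reads.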

Row | Variant | self-cleavage
1 | UAACGGGGGGCCACAGCAGAAGCGUUCACGUCGCAGCCCCUGUCAGAUGCAGGUGAAUCUGCGAAUUCUGCUGUAUAUCUC [A5G U49G U51A] | 0.1
2 | UAACGGGGGGCCACAGCAGAAGCGUUCACGUCGCAGCCCCUGUCAGAUUCAGGUGGAUCUGCGAAUUCUGCUGUGUAUCUC [A5G U51A A56G A75G] | 0.32
3 | UAACGGGGGGCCACAGCAGAAGCGUUCACGUCGCAGCCCCUGUCAGAUUCAGGCGAAUCUGCGAAGUCUGCUGUAUAUCUC [A5G U51A U54C U66G] | 0.14
4 | UAACGGGGGGCCACAGCAGAAGCGUUCACGUCGCAGCCCCUGUCAGAUUCCGGUAAAUCUGCGAAUUCUGCUGUAAAUCUC [A5G U51C G55A U76A] | 0.41
5 | UAACGGGGGGCCACAGCAGAAGCGUUCACGUCGCAGCCCCUGUCAGAUUCCGGUGAAUCUGCGAAUUCUGCUUCAUAUCUC [A5G U51C G73U U74C] | 1.16
6 | UAACGGGGGGCCACAGCAGAAGCGUUCACGUCGCAGCCCCUGUCAGAUUCGGGUGAAUCUGUGAAUUCUGCUGUAUAUCUC [A5G U51G C62U] | 0.1
7 | UAACGGGGGGCCACAGCAGAAGCGUUCACGUCGCAGCCCCUGUCAGAUUCUGGAGAGUUUGCGAAUUCUGCUGUAUAUCUC [A5G U54A A57G C59U] | 0.38
8 | UAACGGGGGGCCACAGCAGAAGCGUUCACGUCGCAGCCCCUGUCAGAUUCUGGAGAAUCUGCGAAUUCUGCUGUGUAUCUC [A5G U54A A75G] | 0.64
9 | UAACGGGGGGCCACAGCAGAAGCGUUCACGUCGCAGCCCCUGUCAGAUUCUGGAGAAUCCGCGAAUUCUGCUGUAUAUCUC [A5G U54A U60C] | 0.32
10 | UAACGGGGGGCCACAGCAGAAGCGUUCACGUCGCAGCCCCUGUCAGAUUCUGGAGAAUCUGCGAACUCUGCUGUGUAUCCC [A5G U54A U66C A75G U80C] | 0.18
11 | UAACGGGGGGCCACAGCAGAAGCGUUCACGUCGCAGCCCCUGUCAGAUUCUGGCGAAUCUGCGAGUUCUGCUGUAUAUCUC [A5G U54C A65G] | 0.32
12 | UAACGGGGGGCCACAGCAGAAGCGUUCACGUCGCAGCCCCUGUCAGAUUCUGGCGAAUCAGCGAACUCUGCUGUAUAUCUC [A5G U54C U60A U66C] | 0.27
13 | UAACGGGGGGCCACAGCAGAAGCGUUCACGUCGCAGCCCCUGUCAGAUUCUGGCGAAUCUGCGAACUCUGCUGUAUAACUC [A5G U54C U66C U78A] | 0.09
14 | UAACGGGGGGCCACAGCAGAAGCGUUCACGUCGCAGCCCCUGUCAGAUUCUGGCGAAUCUGCGAAUUCUGCUGUACAUCUC [A5G U54C U76C] | 0.89
15 | UAACGGGGGGCCACAGCAGAAGCGUUCACGUCGCAGCCCCUGUCAGAUUCUGGCGAAUCUGCGAAUUCUGCUGUAUACCUC [A5G U54C U78C] | 0.6
16 | UAACGGGGGGCCACAGCAGAAGCGUUCACGUCGCAGCCCCUGUCAGAUUCUGGGGAAUCUGCGAAUUCUGCUGUAUAACUC [A5G U54G U78A] | 0.17
17 | UAACGGGGGGCCACAGCAGAAGCGUUCACGUCGCAGCCCCUGUCAGAUUCUGGUGAACGUGCGAAUUCUGCUGUAUAUCUC [A5G U58C C59G] | 0.24

Row | Variant | self-cleavage
18 | UAACGGGGGGCCACAGCAGAAGCGUUCACGUCGCAGCCCCUGUCAGAUUCUGGUGAAUCAGCGAAUUCAGCUGUAUAUCUC [A5G U60A U69A] | 0.29
19 | UAACGGGGGGCCACAGCAGAAGCGUUCACGUCGCAGCCCCUGUCAGAUUCUGGUGAAUCCGCGAAUUCUGCCGUAUACCCC [A5G U60C U72C U78C U80C] | 0.22
20 | UAACGGGGGGCCACAGCAGAAGCGUUCACGUCGCAGCCCCUGUCAGAUUCUGGUGAAUCUGCGAACUCUGCUGUGUAUCUC [A5G U66C A75G] | 0.37
21 | UAACGGGGGGCCACAGCAGAAGCGUUCACGUCGCAGCCCCUGUCAGAUUCUGGUGAAUCUGCGAACCCUGCUGAAUAUCUC [A5G U66C U67C U74A] | 0.58
22 | UAACGGGGGGCCACAGCAGAAGCGUUCACGUCGCAGCCCCUGUCAGAUUCUGGUGAAUCUGCGAACUCUGCGGUAUAUCUC [A5G U66C U72G] | 0.14
23 | UAACGGGGGGCCACAGCAGAAGCGUUCACGUCGCAGCCCCUGUCAGAUUCUGGUGAAUCUGCGAAUACUGCUAUAUAUCCC [A5G U67A G73A U80C] | 0.66
24 | UAACGGGGGGCCACAGCAGAAGCGUUCACGUCGCAGCCCCUGUCAGAUUCUGGUGAAUCUGCGAAUCCUGCUAUAUAUCUC [A5G U67C G73A] | 0.17
25 | UAACGGGGGGCCACAGCAGAAGCGUUCACGUCGCAGCCCCUGUCAGAUUCUGGUGAAUCUGCGAAUCCUGCGGUAUAUCUC [A5G U67C U72G] | 0.09
26 | UAACGGGGGGCCACAGCAGAAGCGUUCACGUCGCAGCCCCUGUCAGAUUCUGGUGAAUCUGCGAAUCCUGCUGUAUACCUC [A5G U67C U78C] | 0.11
27 | UAACGGGGGGCCACAGCAGAAGCGUUCACGUCGCAGCCCCUGUCAGAUUCUGGUGAAUCUGCGAAUUCAGCUGUAUACCUC [A5G U69A U78C] | 0.17
28 | UAACGGGGGGCCACAGCAGAAGCGUUCACGUCGCAGCCCCUGUCAGAUUCUGGUGAAUCUGCGAAUUCCGCUGUAUAUCCC [A5G U69C U80C] | 0.39
29 | UAACGGGGGGCCACAGCAGAAGCGUUCACGUCGCAGCCCCUGUCAGAUUCUGGUGAAUCUGCGAAUUCUGCCGUGCAUCUC [A5G U72C A75G U76C] | 0.63
30 | UAACGGGGGGCCACAGCAGAAGCGUUCACGUCGCAGCCCCUGUCAGAUUCUGGUGAAUCUGCGAAUUCUGCCGUAUAUAUC [A5G U72C C79A] | 0.77
31 | UAACGGGGGGCCACAGCAGAAGCGUUCACGUCGCAGCCCCUGUCAGAUUCUGGUGAAUCUGCGAAUUCUGCCGUAUAUUCC [A5G U72C C79U U80C] | 0.7
32 | UAACGGGGGGCCACAGCAGAAGCGUUCACGUCGCAGCCCCUGUCAGAUUCUGGUGAAUCUGCGAAUUCUGCCGAAUACCUC [A5G U72C U74A U78C] | 0.91
33 | UAACGGGGGGCCACAGCAGAAGCGUUCACGUCGCAGCCCCUGUCAGAUUCUGGUGAAUCUGCGAAUUCUGCCGUAUACCUC [A5G U72C U78C] | 0.91
34 | UAACGGGGGGCCACAGCAGAAGCGUUCACGUCGCAGCCCCUGUCAGAUUCUGGUGAAUCUGCGAAUUCUGCUGAUUAUCUC [A5G U74A A75U] | 1.02
